According to PubChem BioAssay AID1963576 (National Center for Advancing Translational Sciences (NCATS), 2024):
Among all 46,000 compounds or so, about 60 (0.1%) were called active. Roughly 3% stayed inconclusive and do not appear here. Calls come from the whole dose curve; as a rule, active = well fitted inhibition curve with a large enough effect; inconclusive = small, poorly fitted or top-dose-only effect; inactive = no such curve, though single readings can be large or run the other way. Some of the results follow.

test: Primary qHTS assay for Inhibitors of ovarian cancer metastasis using an organotypic tumor microenvironment (TME) model.; note: nearly all actives have a fitted effect of over 65% in size;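 for activity change, negative = inhibition: plate controls were DMSO wells for no effect and tomatine positive control wells for full effect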; settings: SKOV3ip1-GFP adhesion/invasion on 3D omental model, fluorescence; series mostly up to 45.8 µM; activity change, negative = inhibition: at the top concentration
Summary of the method: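 Adhesion/invasion was scored as fixed GFP-labeled SKOV3ip1 cell counts (488/509 nm), normalized to DMSO and tomatine controls. Cancer cells in serum-free medium, with four compound doses (0.36-46 umol/L), sat 2 hr at RT then 16 hr at 37 C on a 48 hr fibroblast/mesothelial/ECM culture.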

Activity change, negative = inhibition, inactive:
CN1CCN(C(c2ccc(F)cc2)c2sc3nc(-c4ccco4)nn3c2O)CC1 (stereo unspecified) -5.96%
CCn1c(C)c(C)c2cc(C(=O)NCCc3cc(OC)c(OC)c(OC)c3)ccc21 -1.65%
CCc1ccc(S(=O)(=O)c2nnn3c2nc(NCc2cccs2)c2sccc23)cc1 23.4%
COc1ccc(Cn2c(C(=O)O)c(CNCc3cccs3)c3ccc(C)cc32)cc1 -20.3%
COc1cc(OC)cc(-c2nc3nc(C)c(CCC(=O)Nc4ccc(Cl)cc4)c(C)n3n2)c1 -8.56%
COc1cccc(C(=O)Nc2ccc3oc(-c4ccc5ccccc5c4)nc3c2)c1 -10.8%
Cc1cc(C)c(Nc2nn3c(=O)c4cc5c(cc4nc3s2)OCO5)c(C)c1 1.57%
CCN(CC)S(=O)(=O)c1ccc2c(c1)N(CC(=O)NCCCN1CCN(c3ccccc3F)CC1)C(=O)CO2 14.1%
Cc1cccc(C(=O)Nc2sc3c(c2C(=O)NCc2ccco2)CCCC3)c1 -6.58%
COc1cccc(NC(=O)NCc2ccc3c(c2)CCN3C(=O)c2ccccc2)c1 -4.02%
CCOc1ccc(CCNC(=O)CCc2c(C)nc3c4c(C)cc(C)nc4nn3c2C)cc1 -8.81%
COc1ccccc1C1C=C(c2ccc(F)cc2)Nc2nc(-c3ccc(Cl)cc3)nn21 (stereo unspecified) 2.76%
CCOC(=O)c1scc(-c2ccccc2)c1S(=O)(=O)Nc1ccccc1F -4.08%
CCCc1nn2c(=O)cc(COC(=O)c3cccc(NC(=O)COc4ccc(F)cc4)c3)nc2s1 5.87%
CC(C)c1ccc(C2N3CC4(C)CN2CC(c2ccccc2)(C3)C4=O)cc1 (stereo unspecified) 6.98%
CCc1ccc(NC(=O)c2cc(C(C)=O)n3ccccc23)cc1 -26.7%
O=C(Cn1c(=O)oc2cc(S(=O)(=O)N3CCCCC3)ccc21)Nc1cccc(Cl)c1 -10.8%
Cc1nc(-c2ccc(Cl)cc2)sc1CCNC(=O)C(=O)Nc1ccc(F)cc1F 3.72%
O=C(O)c1cc(NC2(c3ccccc3)C(=O)c3ccccc3C2=O)ccc1Cl 11.8%
Cc1cc(C)c(Cn2c3ccccc3c3cnn(CC(=O)NC4CCC(C)CC4)c(=O)c32)c(C)c1 (stereo unspecified) -10.4%
Cc1ccccc1-n1c(SCC(=O)Nc2ccc(Cl)cc2F)nnc1-c1cc2occc2n1C -7.93%
CCc1ccc(NC(=O)CN2CCN(Cc3ccccc3)S2(=O)=O)cc1 1.69%
Cc1ccc(N(CC(=O)NCCc2ccc(Cl)cc2)S(=O)(=O)N(C)C)cc1 6.15%
COc1cccc(NC(=O)CSc2nc3c(oc4ccccc43)c(=O)n2Cc2ccco2)c1 7.38%
O=C(Nc1ccc2oc(-c3cccnc3)nc2c1)c1cccc(Br)c1 0.173%
Cc1ccc(OCC(=O)Nc2ccc(S(=O)(=O)Nc3cc(C)nc(C)n3)cc2)c(Br)c1 27.2%
COc1ccc(C2=CC(c3ccc(F)cc3)n3ncc(C(=O)Nc4ccc(C)cc4)c3N2)cc1 (stereo unspecified) -12%
Cc1ccc(CN2CCc3nc(N4CCN(c5ncccn5)CC4)ncc3C2)cc1 -4.66%
CCc1ccc(CNC(=O)c2sc3ncccc3c2-n2c(C)ccc2C)cc1 -5.07%
O=C(Cn1ccn(-c2ccc(F)c(F)c2)c(=O)c1=O)Nc1ccccc1F 1.5%
CCOc1ccccc1CNS(=O)(=O)c1ccc2c(c1)CCCN2C(C)=O -3.41%
COc1cc(OC)cc(C(=O)Oc2c(Sc3ccccc3)c(C)nn2C(C)(C)C)c1 -5.12%
COc1ccccc1-c1nc2c(c(SCc3cccc(Cl)c3)n1)Cc1c(CO)cnc(C)c1O2 0.177%
CCOC(=O)c1ccccc1NC(=O)N1CCc2c(sc(C)c2CC)C1c1ccccc1 (stereo unspecified) -1.19%
Cc1cccc(NC(=O)C(=O)NCC(c2ccc3c(c2)OCO3)N2CCOCC2)c1C (stereo unspecified) -12.4%
COc1cc(-c2noc(CN3CCN(c4ccccc4)CC3)n2)cc(OC)c1OC -0.79%
CC(C)CCNC(=O)CCCN1C(=O)c2ccccc2Sc2ncccc21 -6.97%
Fc1ccc(C(c2ccc(F)cc2)N2CCN(CC=Cc3ccccc3)CC2)cc1 -7.14%
Cc1cc(C)c(NC(=O)C2CCN(c3nc4ccccc4[nH]3)CC2)c(C)c1 -0.759%
O=C(Nc1cccs1)Nc1cc(C(F)(F)F)ccc1Cl -28.6%
CN1CCN(C(CNC(=O)c2cccc(F)c2)c2ccc3c(c2)OCO3)CC1 (stereo unspecified) 2.66%
CCOc1ccc(-n2c(Cc3ccccc3)nnc2SCc2nc(-c3ccccc3OC)no2)cc1 5.95%
Cc1ccc2c(c1)-c1nc(-c3ccc(Cl)cc3)cc(-c3coc4ccccc4c3=O)c1CO2 9.65%
O=C(Nc1ccc2oc(-c3ccccc3F)nc2c1)c1ccccc1Cl -2.88%
Cc1cc(C)c2c(=O)cc(C(=O)Nc3sc4c(c3C(=O)NCc3ccccc3)CCCC4)oc2c1 -13%

outcome, inactive:
O=C(Nc1ccccc1F)C(Cc1ccccc1)n1cccc1 (stereo unspecified)
COc1ccc(-c2c3c(=O)n(C)c(=O)n(C)c3c3c(-c4ccccc4)nc4ccccc4n23)cc1
O=C(Nc1ccc2nc(SCC(=O)N3CCOCC3)sc2c1)c1ccc(F)cc1
Cc1ccc2[nH]c(=O)c3cc(C(=O)N4CCN(c5ccccc5)CC4)sc3c2c1
COC(=O)c1sccc1S(=O)(=O)N1CCN(c2ccccc2)CC1
CCc1nn(-c2ccccc2)c2nc(-c3ccccc3OC)c3cc(OC)c(OC)cc3c12
Cc1ccccc1NC(=O)c1ccc(F)c(S(=O)(=O)N(C)Cc2ccccc2)c1
Cc1cccc(NC(=O)CCCn2c(C)c3cnn(-c4ccccc4)c(=O)c3c2C)c1C
Cc1ccc(Cn2c(C(=O)O)c(CNCc3ccccc3Cl)c3ccc(C)cc32)cc1
Cc1oc2c(c(C)cc3oc(=O)c(CC(=O)NCCc4ccccc4F)c(C)c32)c1C
CCOC(=O)C1CCN(c2ncnc3c2c(-c2ccccc2)cn3-c2cccc(C)c2)CC1
O=C(CCSc1nc(-c2ccco2)cc(C(F)(F)F)n1)Nc1cccc(O)c1
Cc1ccc(C)n1-c1nnc(N2CCCC(C(=O)NCc3ccc(Cl)cc3)C2)s1 (stereo unspecified)
Cc1ccc(-c2nc3cc(C(C)C)ccc3o2)cc1NC(=O)c1cc2ccccc2o1
Cc1cn2c(=O)cc(COC(=O)c3cccc(NC(=O)COc4ccccc4Cl)c3)nc2s1
Cc1cccc(CSc2ncc(CO)n2Cc2ccc(F)cc2)c1
